In PubChem BioAssay (NCI):
Several values for one entry are separate records, joined by “and”; a condition that tells them apart may be missing. Equal values may be shown once.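 Step 1: Grow cells in 96-well plates. Step 2: Expose to compound for 48 hours at 5 concentrations. Step 3: Interpolate endpoints linearly; if unreached, use highest concentration. At the GI50, growth is halved. TGI denotes the concentration required for complete inhibition of growth.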 Square brackets hold non-standard residues; d marks the D form. Peptide text beside a SMILES is read from it. * marks the point of attachment. Octanoyl = CCCCCCCC(=O)*; Aib = CC(C)(N)C(=O)O; tBu = CC(C)(C)*

Test system: NCI-H322M lung
Assay: DTP human tumour cell line panel, 48 h

SMILES	TGI	GI50 [µM]
COP1(=O)Oc2ccccc2C(=O)C(C(F)(F)F)(C(F)(F)F)O1 (centres undefined)	> 100 µM	–
CCCCCCCC/C=C\CCCCCCCC(=O)NCCN(CCN)C(=O)CCCCCCC/C=C\CCCCCCCC	> 100 µM	–
CCOC(=O)CCC(NC(=O)c1ccc(Nc2nc3ccccc3nc2-c2cccs2)cc1)C(=O)OCC (centres undefined)	> 100 µM	–
CN(C1=NCCO1)c1cccc2c1CCCC2	> 10 µM	–
CC(C)NC(=O)OCc1c(COC(=O)NC(C)C)n(C)c2c1ccc1ccccc12	15.6 µM	–
CCCCCCCC(=O)NC(C)(C)C(=O)NC(COC(C)(C)C)C(=O)NC(CC(C)C)C(=O)NC(C)(C)C(=O)NC(COC(C)(C)C)C(=O)NC(COC(C)(C)C)C(=O)NC(CC(C)C)C(=O)NC(C)(C)C(=O)NC(COC(C)(C)C)C(=O)NC(C(=O)NC(CC(C)C)C(=O)OC)C(C)CC (centres undefined) (Octanoyl-[Aib]S(tBu)L[Aib]S(tBu)S(tBu)L[Aib]S(tBu)IL-OMe; configuration not given here)	> 25 µM	–
CCOP(=O)(C=C=C(C)C)OCC	> 100 µM	–
Oc1ccc(Cn2c(-c3ccc(O)c(O)c3)nc3ccccc32)cc1O	58.6 µM	–
NS(=O)(=O)c1ccc(CCN=C=S)cc1	26.6 µM	13.7
COc1cc2nc(Nc3cccc(F)c3)nc(Nc3cc(C)[nH]n3)c2cc1OC	3.29 µM	1.75
COc1cc(C(=O)c2cc3c(cc2C)OCO3)cc(OC)c1OC	> 100 µM	0.794
CCOP(=O)(OCC)/C(C#N)=C/c1cccn1CC(C)C	> 100 µM	–
ClC1=C(Cc2ccccc2)Cc2ccc3c(c21)CCC3	> 100 µM	–
O=C(CCc1cccc(O)c1)NCCc1ccc(O)cc1	> 100 µM	–
CN(C)c1ccc(/C=C(\NC(=O)c2ccccc2)C2NC(Cc3c[nH]c4ccccc34)C(=O)O2)cc1 (centres undefined)	> 100 µM	–
CCn1cnc2c(Nc3cccc(Cl)c3)nc(N[C@@H]3CCCC[C@@H]3N)nc21	7.78 µM	1.65
CCO[C@]12C[C@H](OC)[C@@]3(O)CC(C1[C@H]3O)C13C4C2[C@H](OC)C1[C@](COC)(CN4CC)[C@H](O)C[C@@H]3OC (some centres undefined)	> 100 µM	–
CCN(CC)CCCNc1nc2ccccc2c2[nH]c3ccc(OC)cc3c12	5.89 µM	–
CCOC(=O)[C@@]12CCC(C1=O)[C@](C)(O)C[C@@H]2c1ccccc1	> 100 µM	–
c1ccc(/N=N/Nc2ccc(-c3nc4ccccc4[nH]3)cc2)nc1	48.9 µM	–
COc1ccc(NC(=O)c2sc3nc(C)c(C(O)c4ccccc4)cc3c2N)cc1 (centres undefined)	> 100 µM	0.761
CN(C)c1ccc(/C=C(\NC(=O)c2ccccc2)C(=O)NC(CCC(=O)O)C(=O)O)cc1 (centres undefined)	> 100 µM	–
N/N=C1/CCCc2nonc21	> 100 µM	–
CCCN(CCC)c1ccc(/C=N/NC(=O)c2cccnc2)c(Cl)c1	> 100 µM	27.7

SMILES	TGI	GI50 [µM]
CCCCCCCC[N+](C)(CCCCCCCC)CCCCCCCC	3.06 µM	1.63
O=C(/C=C\c1ccc(Cl)cc1Cl)c1cccs1	> 100 µM	–
Cc1cc(Cl)cc2c1NC(=O)C2(O)C(C)C(=O)c1ccc(Cl)cc1 (centres undefined)	> 100 µM	–
CSc1nc2sc3cc(Cl)ccc3n2c(=N)c1C#N	> 100 µM	> 90.9
CC(C)NCC(O)c1ccc(OCc2ccccc2)c(OCc2ccccc2)c1-c1ccccc1 (centres undefined)	3.01 µM	–
C[C@H]1[C@H](C)CC[C@]2(C(=O)O)CC[C@]3(C)C(=CC[C@@H]4[C@@]5(C)C/C(=C/c6ccco6)C(=O)C(C)(C)[C@@H]5CC[C@]43C)[C@H]12	16 µM	3.24
O=C(Nc1nc2ncn(CC(COc3ccccc3)OC(=O)c3ccccc3)c2c(=O)[nH]1)c1ccccc1 (centres undefined)	> 100 µM	–
CN(C)c1nc(NN)c2c(-c3ccccc3)c(-c3ccccc3)oc2n1	> 100 µM	–
N.N.NCCCCN.O=C([O-])C1(C(=O)[O-])CCC1.O=C([O-])C1(C(=O)[O-])CCC1.[Pt+4].[Pt+4]	> 100 µM	> 100
C1=Cc2nc1c(-c1ccncc1)c1ccc([n-]1)c(-c1ccncc1)c1nc(c(-c3ccncc3)c3ccc([n-]3)c2-c2ccncc2)C=C1.[Zn+2]	> 100 µM	–
O=C(Nc1c(O)[nH]c(=S)[nH]c1=O)c1ccc2ccccc2n1	> 100 µM	–
CC(C)[C@](O)(C(=O)OCC1CC[N+]2([O-])CC[C@@H](O)C12)[C@H](C)O (some centres undefined)	> 375 µM	–
O=c1[nH]nc(Cc2ccc(Cl)cc2)n1/N=C\c1ccc(/C=N/n2c(Cc3ccc(Cl)cc3)n[nH]c2=O)cc1	> 100 µM	–
O=C(COc1ccccc1)NS(=O)(=O)c1ccccc1	> 100 µM	–
Cc1cc(Cl)ccc1N=C1NC(=O)C(CC(=O)Nc2ccc(Cl)cc2Cl)S1 (centres undefined)	> 100 µM	–
O=c1oc2ccc3ccccc3c2cc1-c1nc2ccccc2o1	> 55.2 µM	–
Nc1c(C(=O)Nc2ccccc2Cl)sc2nc3c(cc12)CCCCCC3	> 100 µM	12.5
Cc1cc(C)c2c(=O)n(CN3CCC(O)(c4ccccc4)CC3)sc2n1	> 100 µM	–
COc1ccc2oc(C(=O)N3CC(CCl)c4ccc([N+](=O)[O-])cc43)cc2c1 (centres undefined)	> 100 µM	–
CN(C)CCCc1c[nH]c2ccccc12	> 100 µM	–
Cc1ccc(S(=O)(=O)N2CCc3ccc(O)c4c3C2Cc2cc(Cl)ccc2-4)cc1 (centres undefined)	17.2 µM	1.91
Cc1ccc(C)c(-c2csc(Nc3ccc(C)c(C)c3)n2)c1	> 100 µM	> 100
O=C1OC(O)C(Oc2ccc(Cl)cc2)=C1Cl (centres undefined)	> 100 µM	–
CC(C)(C)c1ccc(C(O)c2ccc(C(C)(C)C)cc2)cc1	33.2 µM	–

SMILES	TGI	GI50 [µM]
CC(C)(C)C(=O)C1CC(=O)c2ccccc2C1=O (centres undefined)	74.8 µM	–
O=[N+]([O-])c1cc(-[n+]2cc([O-])on2)ccc1F	30.9 µM	–
O=C(O)CC/C(=N\Nc1nsc2ccccc12)c1ccc(Cl)cc1	> 79.9 µM	–
N=c1ccc2c(c1)[nH]c1c3ccccc3[nH]c3cccc2c31	2.58 µM	–
Cn1c2ccccc2c(=NNc2ccccc2C(=O)O)c2ccccc21	45.7 µM	–
c1ccc(CN(Cn2cccn2)Cn2cccn2)nc1	> 100 µM	–
O=C(Cc1ccc(Cl)c(Cl)c1)N(CCc1ccc(Cl)c(Cl)c1)CCN1CCCC1	6.51 µM	–
CCC(=C/[C@H](C)C/C=C/C(C)=C/[C@@H](C)C(=O)[C@@H](C)[C@H](O)[C@@H](C)CC)/C=C/[C@H]1OC(=O)C=C[C@H]1C	2.85 µM	< 0.01
NS(=O)(=O)c1ccc(CNc2nc(-c3cccs3)nc3ccc(I)cc23)cc1	34.8 µM	–
Cc1ccccc1C(C#N)C(=O)C(=O)Nc1cccc(Cl)c1 (centres undefined)	> 100 µM	–
CCOC(=O)C1=c2[nH]c3cccc4cccc(c43)n2C=C(C(C)=O)C1CC(C)=O (centres undefined)	> 100 µM	–
CCOC(=O)c1sc(Nc2ccc(Cl)cc2)nc1C	7.6 µM	2.48
CC(CO)C1=CC(C#CCOCc2ccccc2)N(C(=O)Oc2ccccc2)c2ccccc21 (centres undefined)	> 100 µM	–
COc1ccc(-c2ccc(C3CC(c4ccc(Cl)cc4)=NN3)o2)c([N+](=O)[O-])c1 (centres undefined)	> 100 µM	> 100
COc1ccc([C@H]2CC(=O)NCCCCN2)cc1	> 100 µM	–
CN(C)CCNC(=O)c1cccc2[nH]c(-c3ccccc3)nc12	43.8 µM	–
CO[C@@H]1[C@H](OC(=O)NC(=O)CCl)CC[C@]2(CO2)[C@H]1[C@@]1(C)O[C@@H]1CC=C(C)C	35.7 µM and 36.9 µM	6.21
COc1ccc2c(c1)N=C1CSC(c3cc([N+](=O)[O-])ccc3Cl)N1C2 (centres undefined)	47.5 µM	–
CC1OC(OCC2COC(O)(Oc3c(-c4ccc(O)c(O)c4)oc4cc(O)cc(O)c4c3=O)C(O)C2O)C(O)C(O)C1O (centres undefined)	> 100 µM	–
O=c1cnn2c(n1)sc1ccc3ccccc3c12	> 100 µM	–
Cn1cc(C2=C(c3cn(CCN)c4ccccc34)C(=O)NC2=O)c2ccccc21	> 21.4 µM	6.71
COc1cc(-n2cc(-c3ccc(Cl)cc3)[nH]c2=O)cc(OC)c1OC	74.5 µM	19.8
CC(=O)N[C@H]1CCCC[C@@H]1OC(C)=O	> 100 µM	–
CN(C)c1nc(-c2ccccc2)c(C(=O)c2c[nH]c3ccccc23)s1	> 100 µM	–

SMILES	TGI	GI50 [µM]
NC(=S)N/N=C1/C(=O)N(c2ccc(Cl)cc2Cl)C(=O)C(=O)C1c1nc2ccccc2s1 (centres undefined)	> 100 µM	–
CCOC(=O)/C(=C/c1ccc(C#N)cc1)N(CC)CC	> 100 µM	–
N#Cc1ccnc(N2C(=O)CC[C@H]2C(=O)N(c2cncc(F)c2)[C@H](C(=O)NC2CC(F)(F)C2)c2ccccc2Cl)c1	> 100 µM	84.4
COC1=CC(c2ccc[nH]2)=N/C1=C\c1[nH]c(C)c(C(=O)CCCCC(=O)Nc2ccccc2)c1C	29.9 µM	9.86
NS(=O)(=O)c1ccc(N2N=C3c4ccccc4CC3C2c2ccc(Cl)cc2)cc1 (centres undefined)	43.5 µM	5.8
CC12CCC[C@@](C)(C(=O)OC3OC(CO)C(O)C(O)C3O)[C@H]1CCC13CC4CC(OC4(CO)[C@H]1O)[C@@H]23 (some centres undefined)	> 100 µM	–
COC(=O)C(Cc1ccccc1)OC(=O)C(N)CC(=O)O (centres undefined)	> 100 µM	–
Cc1c2c(n(Cc3ccccn3)c1C)NN=C(C#N)S2(=O)=O	> 100 µM	–
CCCCCCCCCCCCCCCCOCC(COP(=O)([O-])OCC[N+](C)(C)C)OCCCCCCCCCCCCCCCC (centres undefined)	> 100 µM	–
COc1ccc(/C=C/C(=O)N[C@@H]2C(=O)N3[C@@H]2SC(C)(C)[C@@H]3C(=O)O)cc1	> 100 µM	–
CC1(C)CN=C(Nc2cccc(C(F)(F)F)c2)S1	> 100 µM	–
COc1ccc2nc3ccccc3c(NCCCCCCN(C)CCCl)c2c1	4.33 µM	–
O=c1ccn2n1CCCCC2	> 100 µM	–
COC1=CC(c2ccc[nH]2)=N/C1=C\c1ccc[nH]1	19 µM	0.722
CC(C)OP(=O)(OC(C)C)C(=Nc1ccccc1)NNc1ccc([N+](=O)[O-])cc1	> 100 µM	–
O=[n+]1c2ccccc2n([O-])c2cc(Br)ccc21	> 100 µM	–
CC1C=CC(=O)C(n2cc(F)c(=O)[nH]c2=O)O1 (centres undefined)	35 µM	–
Clc1c(Cl)c2c(Cl)c(Cl)c1C[P+](c1ccccc1)(c1ccccc1)CC[P+](c1ccccc1)(c1ccccc1)Cc1c(Cl)c(Cl)c(c(Cl)c1Cl)C[P+](c1ccccc1)(c1ccccc1)CC[P+](c1ccccc1)(c1ccccc1)C2	13.9 µM	–
CCCCCCCCCCCCCCCCCCOCC(CO[P+](=O)O)OCCCCCCCCCCCCCCCCCC (centres undefined)	> 50 µM	–
CC(C)(C)C(=O)C(C(c1ccccc1)N1CCOCC1)N1CCOCC1 (centres undefined)	> 100 µM	–
N#CCCN(c1ccc(-c2nnc(NC(=O)CNNC(=O)CC(=O)Nc3ccccc3)s2)cc1)S(=O)(=O)c1ccccc1	> 100 µM	–
Cc1[nH]c(=O)nc(NCCNCCO)c1C(=O)Nc1c2ccccc2nc2ccccc12	> 100 µM	–
N#CC(c1cc2c(cc1Br)OCO2)N1CCOCC1 (centres undefined)	> 100 µM	–
Cc1ccc(Cl)c(NC(=O)C(=O)C(C(=O)c2ccncc2)C2OC(=O)c3ccccc32)c1 (centres undefined)	> 100 µM	–
